Reference: the supplement of paper PMC8728848
The other results are listed elsewhere or left out.

What was measured:
Assay in all cases: glycan array binding signal (z-score within array); higher = stronger binding
Details in all cases: glycan notation: IUPAC condensed, linker removed
[1] = target: Gal(a1-3)Gal(b1-4)GlcNAc(b1-2)Man
In short: (§1)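 Glycan array data were curated from 3228 arrays in the Consortium for Functional Glycomics database and kept only where the protein sequence was available. Glycan names were converted to IUPAC-condensed notation, and columns mapping to the same glycan were averaged. The binding signal is a within-array Z-score, averaged across arrays of the same protein sequence at different concentrations or buffers and across linkers. Negative Z-scores can be read as non-binding.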

[2] = target: Gal(a1-3)Gal(b1-4)GlcNAc(b1-2)Man(a1-3)[Gal(a1-3)Gal(b1-4)GlcNAc(b1-2)Man(a1-6)]Man(b1-4)GlcNAc(b1-4)GlcNAc
In short: as §1

[3] = target: Gal(a1-3)Gal(b1-4)GlcNAc(b1-3)GalNAc
In short: as §1

[4] = target: Gal(a1-3)Gal(b1-4)GlcNAc(b1-6)GalNAc
In short: as §1

[5] = target: Gal(a1-3)Gal(b1-4)[Fuc(a1-3)]GlcNAc
In short: as §1

[6] = target: Gal(a1-3)Gal(b1-4)[Fuc(a1-3)]GlcNAc(b1-2)Man(a1-3)[Gal(a1-3)Gal(b1-4)[Fuc(a1-3)]GlcNAc(b1-2)Man(a1-6)]Man(b1-4)GlcNAc(b1-4)GlcNAc
In short: as §1

Gal(a1-3)GalNAc = target: Gal(a1-3)GalNAc
In short: as §1

[7] = target: Gal(a1-3)[Gal(a1-4)]Gal(b1-4)GlcNAc
In short: as §1

[8] = target: Gal(a1-4)Gal(b1-3)GlcNAc(b1-2)Man(a1-3)[Gal(a1-4)Gal(b1-3)GlcNAc(b1-2)Man(a1-6)]Man(b1-4)GlcNAc(b1-4)GlcNAc
In short: as §1

Gal(a1-4)Gal(b1-4)Glc = target: Gal(a1-4)Gal(b1-4)Glc
In short: as §1

Gal(a1-4)Gal(b1-4)GlcNAc = target: Gal(a1-4)Gal(b1-4)GlcNAc
In short: as §1

[9] = target: Gal(a1-4)Gal(b1-4)GlcNAc(b1-2)Man(a1-3)[Gal(a1-4)Gal(b1-4)GlcNAc(b1-2)Man(a1-6)]Man(b1-4)GlcNAc(b1-4)GlcNAc
In short: as §1

[10] = target: Gal(a1-4)Gal(b1-4)GlcNAc(b1-3)Gal(b1-4)Glc
In short: as §1

Gal(a1-4)GlcNAc = target: Gal(a1-4)GlcNAc
In short: as §1

Gal(a1-6)Glc = target: Gal(a1-6)Glc
In short: as §1

Gal(b1-2)Gal = target: Gal(b1-2)Gal
In short: as §1

Gal(b1-3)Gal = target: Gal(b1-3)Gal
In short: as §1

Gal(b1-3)Gal(b1-4)GlcNAc = target: Gal(b1-3)Gal(b1-4)GlcNAc
In short: as §1

Gal(b1-3)GalNAc = target: Gal(b1-3)GalNAc
In short: as §1

[11] = target: Gal(b1-3)GalNAc(a1-3)[Fuc(a1-2)]Gal(b1-4)Glc
In short: as §1

[12] = target: Gal(b1-3)GalNAc(a1-3)[Fuc(a1-2)]Gal(b1-4)GlcNAc
In short: as §1

Gal(b1-3)GalNAc(b1-3)Gal = target: Gal(b1-3)GalNAc(b1-3)Gal
In short: as §1

[13] = target: Gal(b1-3)GalNAc(b1-3)Gal(a1-4)Gal(b1-4)Glc
In short: as §1

[14] = target: Gal(b1-3)GalNAc(b1-4)Gal(b1-4)Glc
In short: as §1

[15] = target: Gal(b1-3)GalNAc(b1-4)[Neu5Ac(a2-3)]Gal(b1-4)Glc
In short: as §1

Gal(b1-3)GlcNAc = target: Gal(b1-3)GlcNAc
In short: as §1

[16] = target: Gal(b1-3)GlcNAc(a1-3)Gal(b1-4)GlcNAc
In short: as §1

[17] = target: Gal(b1-3)GlcNAc(a1-6)Gal(b1-4)GlcNAc
In short: as §1

Gal(b1-3)GlcNAc(b1-2)Man = target: Gal(b1-3)GlcNAc(b1-2)Man
In short: as §1

[18] = target: Gal(b1-3)GlcNAc(b1-2)Man(a1-3)[Gal(b1-3)GlcNAc(b1-2)Man(a1-6)]Man(b1-4)GlcNAc(b1-4)GlcNAc
In short: as §1

[19] = target: Gal(b1-3)GlcNAc(b1-2)Man(a1-3)[Gal(b1-3)GlcNAc(b1-2)Man(a1-6)]Man(b1-4)GlcNAc(b1-4)[Fuc(a1-6)]GlcNAc
In short: as §1

[20] = target: Gal(b1-3)GlcNAc(b1-2)Man(a1-3)[GlcNAc(b1-4)][Gal(b1-3)GlcNAc(b1-2)Man(a1-6)]Man(b1-4)GlcNAc(b1-4)GlcNAc
In short: as §1

[21] = target: Gal(b1-3)GlcNAc(b1-2)[Gal(b1-3)GlcNAc(b1-6)]Man(a1-6)[Gal(b1-3)GlcNAc(b1-2)Man(a1-3)]Man(b1-4)GlcNAc(b1-4)GlcNAc
In short: as §1

[22] = target: Gal(b1-3)GlcNAc(b1-3)Gal(b1-3)GlcNAc
In short: as §1

[23] = target: Gal(b1-3)GlcNAc(b1-3)Gal(b1-4)Glc
In short: as §1

[24] = target: Gal(b1-3)GlcNAc(b1-3)Gal(b1-4)GlcNAc
In short: as §1

[25] = target: Gal(b1-3)GlcNAc(b1-3)Gal(b1-4)GlcNAc(b1-2)Man(a1-3)[Gal(b1-3)GlcNAc(b1-3)Gal(b1-4)GlcNAc(b1-2)Man(a1-6)]Man(b1-4)GlcNAc(b1-4)GlcNAc
In short: as §1

[26] = target: Gal(b1-3)GlcNAc(b1-3)Gal(b1-4)GlcNAc(b1-2)[Gal(b1-3)GlcNAc(b1-3)Gal(b1-4)GlcNAc(b1-6)]Man(a1-6)[Gal(b1-3)GlcNAc(b1-3)Gal(b1-4)GlcNAc(b1-2)Man(a1-3)]Man(b1-4)GlcNAc(b1-4)[Fuc(a1-6)]GlcNAc
In short: as §1

[27] = target: Gal(b1-3)GlcNAc(b1-3)Gal(b1-4)GlcNAc(b1-3)Gal(b1-4)GlcNAc(b1-2)[Gal(b1-3)GlcNAc(b1-3)Gal(b1-4)GlcNAc(b1-3)Gal(b1-4)GlcNAc(b1-6)]Man(a1-6)[Gal(b1-3)GlcNAc(b1-3)Gal(b1-4)GlcNAc(b1-3)Gal(b1-4)GlcNAc(b1-2)Man(a1-3)]Man(b1-4)GlcNAc(b1-4)[Fuc(a1-6)]GlcNAc
In short: as §1

[28] = target: Gal(b1-3)GlcNAc(b1-3)Gal(b1-4)GlcNAc(b1-6)[Gal(b1-3)GlcNAc(b1-3)]Gal(b1-4)Glc
In short: as §1

[29] = target: Gal(b1-3)GlcNAc(b1-3)Gal(b1-4)[Fuc(a1-3)]GlcNAc
In short: as §1

[30] = target: Gal(b1-3)GlcNAc(b1-3)Gal(b1-4)[Fuc(a1-3)]GlcNAc(b1-6)[Gal(b1-3)GlcNAc(b1-3)]Gal(b1-4)Glc
In short: as §1

[31] = target: Gal(b1-3)GlcNAc(b1-3)GalNAc
In short: as §1

[32] = target: Gal(b1-3)GlcNAc(b1-6)Gal(b1-4)GlcNAc
In short: as §1

[33] = target: Gal(b1-3)GlcNAc(b1-6)GalNAc
In short: as §1

B1: SBD-G4S3-SBD (protein)
chain: MASIPSSASVQLDSYNYDGSTFSGKIYVKNIAYSKKVTVVYADGSDNWNNNGNIIAASFSGPISGSNYEYWTFSASVKGIKEFYIKYEVSGKTYYDNNNSANYQVSTGGGGSGGGGSGGGGSEFASIPSSASVQLDSYNYDGSTFSGKIYVKNIAYSKKVTVVYADGSDNWNNNGNIIAASFSGPISGSNYEYWTFSASVKGIKEFYIKYEVSGKTYYDNNNSANYQVST
glycan array binding signal (z-score) [1]: -0.248 | glycan array binding signal (z-score) [2]: 0.877 | glycan array binding signal (z-score) [3]: -0.376 | glycan array binding signal (z-score) [4]: -0.225 | glycan array binding signal (z-score) [5]: 0.668 | glycan array binding signal (z-score) [6]: 0.036 | glycan array binding signal (z-score) (Gal(a1-3)GalNAc): -0.407 | glycan array binding signal (z-score) [7]: 2.38 | glycan array binding signal (z-score) [8]: 0.182 | glycan array binding signal (z-score) (Gal(a1-4)Gal(b1-4)Glc): -0.21 | glycan array binding signal (z-score) (Gal(a1-4)Gal(b1-4)GlcNAc): -0.333 | glycan array binding signal (z-score) [9]: -0.315 | glycan array binding signal (z-score) [10]: -0.119 | glycan array binding signal (z-score) (Gal(a1-4)GlcNAc): -0.387 | glycan array binding signal (z-score) (Gal(a1-6)Glc): -0.363 | glycan array binding signal (z-score) (Gal(b1-2)Gal): -0.281 | glycan array binding signal (z-score) (Gal(b1-3)Gal): -0.385 | glycan array binding signal (z-score) (Gal(b1-3)Gal(b1-4)GlcNAc): 0.08 | glycan array binding signal (z-score) (Gal(b1-3)GalNAc): -0.33 | glycan array binding signal (z-score) [11]: -0.39 | glycan array binding signal (z-score) [12]: -0.391 | glycan array binding signal (z-score) (Gal(b1-3)GalNAc(b1-3)Gal): -0.336 | glycan array binding signal (z-score) [13]: -0.324 | glycan array binding signal (z-score) [14]: -0.356 | glycan array binding signal (z-score) [15]: -0.263 | glycan array binding signal (z-score) (Gal(b1-3)GlcNAc): 0.511 | glycan array binding signal (z-score) [16]: -0.366 | glycan array binding signal (z-score) [17]: -0.239 | glycan array binding signal (z-score) (Gal(b1-3)GlcNAc(b1-2)Man): -0.376 | glycan array binding signal (z-score) [18]: 4.15 | glycan array binding signal (z-score) [19]: 2.85 | glycan array binding signal (z-score) [20]: 0.968 | glycan array binding signal (z-score) [21]: 0.251 | glycan array binding signal (z-score) [22]: -0.246 | glycan array binding signal (z-score) [23]: -0.195 | glycan array binding signal (z-score) [24]: -0.361 | glycan array binding signal (z-score) [25]: -0.117 | glycan array binding signal (z-score) [26]: 2.85 | glycan array binding signal (z-score) [27]: 0.953 | glycan array binding signal (z-score) [28]: -0.42 | glycan array binding signal (z-score) [29]: -0.446 | glycan array binding signal (z-score) [30]: -0.428 | glycan array binding signal (z-score) [31]: 2.5 | glycan array binding signal (z-score) [32]: -0.367 | glycan array binding signal (z-score) [33]: -0.069
